# The other results are listed elsewhere or left out. Shown are side measurements of this screen, not its main read-out; they come without a call. For part of these data: Compounds called inactive in the main read-out are mostly missing here. The note in brackets gives the kind of curve behind each potency; many fits are weak.
# How the values were obtained:
# [1] = molecular target: Catechol O-methyltransferase (Homo sapiens) (UniProt P21964); test: Confirmatory Screen for Target Class Profiling of Small Molecule Inhibitors of Methyltransferases (AID 1745852); conditions: MTase-Glo luminescence, SAH detection, recombinant enzyme; measured here: COMT inhibition potency;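 note: inhibitor potency for blocking SAH production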
# Chain of UniProt P21964 (P21964 whole entry, looked up): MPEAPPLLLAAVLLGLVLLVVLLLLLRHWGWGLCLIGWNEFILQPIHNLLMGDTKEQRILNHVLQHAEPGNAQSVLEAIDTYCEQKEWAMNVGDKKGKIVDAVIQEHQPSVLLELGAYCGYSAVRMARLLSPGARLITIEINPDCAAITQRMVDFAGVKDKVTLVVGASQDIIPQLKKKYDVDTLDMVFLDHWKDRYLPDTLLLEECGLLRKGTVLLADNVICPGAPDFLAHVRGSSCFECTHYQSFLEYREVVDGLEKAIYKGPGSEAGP
# [2] = molecular target: Histamine N-methyltransferase (Homo sapiens) (UniProt P50135); test: as above; conditions: MTase-Glo luminescence, SAH detection, recombinant enzyme; measured here: HNMT inhibition potency
# Chain of UniProt P50135 (P50135 whole entry, looked up): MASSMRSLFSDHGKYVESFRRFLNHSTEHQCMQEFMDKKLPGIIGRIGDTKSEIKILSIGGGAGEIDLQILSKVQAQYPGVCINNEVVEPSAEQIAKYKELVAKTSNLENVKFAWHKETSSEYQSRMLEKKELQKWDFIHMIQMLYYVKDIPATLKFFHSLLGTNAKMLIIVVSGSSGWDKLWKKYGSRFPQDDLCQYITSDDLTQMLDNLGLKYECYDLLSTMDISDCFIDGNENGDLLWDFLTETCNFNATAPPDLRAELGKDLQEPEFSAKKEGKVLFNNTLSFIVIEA
# [3] = molecular target: Nicotinamide N-methyltransferase (Homo sapiens) (UniProt P40261); test: as above; conditions: MTase-Glo luminescence, SAH detection, recombinant enzyme; measured here: NNMT inhibition potency
# Chain of UniProt P40261 (P40261 whole entry, looked up): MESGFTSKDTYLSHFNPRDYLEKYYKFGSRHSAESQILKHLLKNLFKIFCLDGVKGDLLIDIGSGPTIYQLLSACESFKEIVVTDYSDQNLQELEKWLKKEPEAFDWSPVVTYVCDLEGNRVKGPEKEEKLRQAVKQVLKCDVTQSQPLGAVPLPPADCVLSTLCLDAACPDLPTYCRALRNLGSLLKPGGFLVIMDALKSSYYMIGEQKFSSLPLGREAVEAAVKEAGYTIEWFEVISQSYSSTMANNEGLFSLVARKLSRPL
# [4] = molecular target: Phenylethanolamine N-methyltransferase (Homo sapiens) (UniProt P11086); test: as above; conditions: MTase-Glo luminescence, SAH detection, recombinant enzyme; measured here: PNMT inhibition potency
# Chain of UniProt P11086 (P11086 whole entry, looked up): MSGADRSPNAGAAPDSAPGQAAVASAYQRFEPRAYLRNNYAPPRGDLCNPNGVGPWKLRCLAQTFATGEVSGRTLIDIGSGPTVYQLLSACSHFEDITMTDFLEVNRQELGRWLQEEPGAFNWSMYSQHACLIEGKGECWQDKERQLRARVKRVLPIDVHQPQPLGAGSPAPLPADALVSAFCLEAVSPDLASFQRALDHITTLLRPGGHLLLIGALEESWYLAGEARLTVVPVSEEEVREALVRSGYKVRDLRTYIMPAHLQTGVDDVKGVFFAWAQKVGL
# [5] = NCATS anti-infectives library activity on the primary C. elegans qHTS viability assay (AID 1745855); conditions: C. elegans worm area imaging
# Method in brief: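 Titration-based screen in worms: eggs hatched overnight in M9, L1 larvae fed TOP10 capsules in S medium with compound, incubated 21 °C for 7 days; fluorescent objects gated by size and intensity at days 0, 3 and 7.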
# [6] = qHTS drug screen for cell cycle checkpoint inhibitors in PARPi-resistant BRCA-mutant ovarian cancer cell lines. (AID 1963452); conditions: PEO1/OlaR viability, CellTiter-Glo luminescence, 96 h
# Method in brief: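 PEO1, PEO4 and PEO1/OlaR ovarian cancer cells, 600 per well, exposed 96 h at 37C to a dilution series. Viability read by CellTiter-Glo luminescence, normalized to DMSO and empty wells; activity summarized as Z-AUC.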
# [7] = qHTS for identification of novel therapeutic agents for treatment of microphthalmiaassociated transcription factor (MiT) renal cell carcinoma (RCC) (AID 1963991); conditions: CellTiter-Glo, 48 h; for z-score: stronger effect = lower value
# Method in brief: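 Viability of three TFE3-fusion renal carcinoma lines measured by CellTiter-Glo after 48 h treatment with each of 1912 compounds at 11 concentrations. Responses scaled between DMSO (100%) and empty wells (0%) before curve fitting.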
# [8] = measured here: PEO1 parental viability
# Tags give direction and shape of the fitted curve.
compound,measurement,setting,value
CC(C)CCNC(=O)c1ccc2c(=O)[nH]c3c(C(=O)NC4CCCC4)sc(=S)n3c2c1,IC50,[1],"27.1 µM [falling, partial curve]"
same,IC50,[2],"30.4 µM [falling, single point]"
same,IC50,[3],"24.1 µM [falling, partial curve]"
same,IC50,[4],"27.1 µM [falling, partial curve]"
Cc1cc(C)cc(-c2cnc3cc(Cl)c(-c4cccc(O)c4)cc3c2OCCCN)c1,IC50,[1],"24.1 µM [falling, partial curve]"
same,IC50,[2],"21.5 µM [falling, partial curve]"
same,IC50,[3],"3.04 µM [falling, full curve]"
same,IC50,[4],"24.1 µM [falling, partial curve]"
CC(C)(C)c1ccc(-c2nc3ccccc3[nH]2)cc1,IC50,[1],"9.37 µM [falling, partial curve]"
same,IC50,[2],"10.5 µM [falling, partial curve]"
same,IC50,[3],"9.37 µM [falling, partial curve]"
same,IC50,[4],"9.37 µM [falling, partial curve]"
CC12CCC3C1C(c1c(cc(O)c(C(=O)c4ccccc4)c1O)O2)C3(C)C (stereo unspecified),IC50,[1],"18.8 µM [falling, single point]"
same,IC50,[2],"21.1 µM [falling, single point]"
same,IC50,[3],"23.7 µM [falling, partial curve, poor fit]"
same,IC50,[4],"23.7 µM [falling, single point]"
CN(Cc1nccs1)c1ncnc2ccc(-c3ccc4c(c3)OCO4)cc12,IC50,[1],"21.5 µM [falling, partial curve]"
same,IC50,[2],"21.5 µM [falling, partial curve]"
same,IC50,[3],"24.1 µM [falling, partial curve]"
same,IC50,[4],"21.5 µM [falling, partial curve]"
Cc1nc(C#Cc2ccnc(Cl)c2)c(C)n1-c1ccc(F)cc1,IC50,[1],"27.1 µM [falling, partial curve]"
same,IC50,[2],"27.1 µM [falling, partial curve]"
same,IC50,[3],"24.1 µM [falling, partial curve]"
same,IC50,[4],"27.1 µM [falling, partial curve]"
O=C(NCc1ccc(Cl)cc1)c1ccc2c(=O)[nH]c3c(C(=O)NC4CCCC4)sc(=S)n3c2c1,IC50,[1],"27.1 µM [falling, single point]"
same,IC50,[2],"27.1 µM [falling, single point]"
same,IC50,[3],"24.1 µM [falling, partial curve]"
same,IC50,[4],"30.4 µM [falling, partial curve]"
O=C(O)c1ccc2c(c1)nc(Nc1cccc(Cl)c1)c1ccncc12,IC50,[1],"21.5 µM [falling, partial curve]"
same,IC50,[2],"21.5 µM [falling, partial curve]"
same,IC50,[3],"27.1 µM [falling, partial curve]"
same,IC50,[4],"24.1 µM [falling, partial curve]"
same,AC50,"[5]; day 7, measured here: worm area, day 3","0.916 µM [falling, partial curve, poor fit]"
same,AC50,[6]; [8],"6.16 µM [falling, partial curve]"
same,AC50,[6]; measured here: PEO4 viability,"3.47 µM [falling, partial curve]"
same,z-score,"[7]; TFE3-RCC UOK109 viability, measured here: UOK109 Z-AUC",0.0846
same,z-score,"[7]; TFE3-RCC viability, measured here: UOK124 Z-AUC",0.0428
same,AC50,"[7]; TFE3-RCC viability, measured here: UOK124 cell viability","16.6 µM [falling, partial curve]"
same,z-score,"[7]; TFE3-RCC viability, measured here: UOK145 Z-AUC",-0.17
same,AC50,"[7]; TFE3-RCC viability, measured here: UOK145 cell viability","13.2 µM [falling, partial curve]"
CCOc1cc2ncc(C#N)c(Nc3ccc(F)c(Cl)c3)c2cc1NC(=O)/C=C/CN(C)C,IC50,[1],"3.83 µM [falling, full curve]"
same,IC50,[2],"3.41 µM [falling, full curve]"
same,IC50,[3],"5.41 µM [falling, full curve]"
same,IC50,[4],"4.29 µM [falling, full curve]"
same,AC50,"[5]; day 7, measured here: worm number","4.09 µM [falling, partial curve, poor fit]"
same,AC50,[6]; [8],"3.89 µM [falling, full curve]"
same,AC50,[6]; measured here: PEO4 viability,"2.45 µM [falling, full curve]"
C[C@@H](Oc1cc(-n2cnc3ccc(OC4CCN(C)CC4)cc32)sc1C(N)=O)c1ccccc1Cl,IC50,[1],"6.07 µM [falling, full curve]"
same,IC50,[2],"3.04 µM [falling, full curve]"
same,IC50,[3],"9.61 µM [falling, full curve]"
same,IC50,[4],"6.81 µM [falling, full curve]"
Cc1cc(C)c(CNC(=O)c2cc(-c3cnn(C)c3C)cc3c2OCCN3C)c(=O)[nH]1,IC50,[1],"35 µM [falling, partial curve]"
same,IC50,[2],"39.3 µM [falling, partial curve]"
same,IC50,[3],"39.3 µM [falling, partial curve]"
same,IC50,[4],"31.2 µM [falling, partial curve]"
COc1cc2nc(N3CCC(N4CCCCC4)CC3)nc(NC3CCCCCC3)c2cc1OC,IC50,[1],"27.1 µM [falling, partial curve]"
same,IC50,[2],"13.6 µM [falling, partial curve]"
same,IC50,[3],"24.1 µM [falling, partial curve]"
same,IC50,[4],"27.1 µM [falling, single point]"
O=[N+]([O-])c1ccc(-[n+]2nc(-c3ccccc3)nn2-c2ccc(I)cc2)cc1,IC50,[1],"21.5 µM [falling, partial curve]"
same,IC50,[2],"21.5 µM [falling, partial curve]"
same,IC50,[3],"21.5 µM [falling, partial curve]"
same,IC50,[4],"21.5 µM [falling, partial curve]"
COc1ccccc1-c1[nH]nc2ncc(C(=O)N3CCN(Cc4ccccc4)CC3)nc12,IC50,[1],"31.2 µM [falling, partial curve]"
same,IC50,[2],"35 µM [falling, partial curve]"
same,IC50,[3],"31.2 µM [falling, partial curve]"
same,IC50,[4],"31.2 µM [falling, partial curve]"
O=C(Nc1ccc2ncnc(N3CCCCC3)c2c1)c1cc(F)ccc1F,IC50,[1],"17.1 µM [falling, partial curve]"
same,IC50,[2],"19.2 µM [falling, partial curve]"
same,IC50,[3],"21.5 µM [falling, partial curve]"
same,IC50,[4],"15.2 µM [falling, partial curve]"
N#CSc1cc(SC#N)c(N)nc1N,IC50,[1],"3.63 µM [falling, partial curve]"
same,IC50,[2],"10.2 µM [falling, single point]"
same,IC50,[3],"8.14 µM [falling, partial curve]"
same,IC50,[4],"2.04 µM [falling, full curve]"
Nc1ncnc2c1ncn2[C@@H]1O[C@H](C[C@@H](N)CC[C@H](N)C(=O)O)[C@@H](O)[C@H]1O,IC50,[1],"12.2 µM [falling, partial curve]"
same,IC50,[2],"17.2 µM [falling, partial curve]"
same,IC50,[3],"4.85 µM [falling, full curve]"
same,IC50,[4],"6.11 µM [falling, full curve]"
CN(C)c1ccc(NC(=O)NS(=O)(=O)c2ccc(Cl)cc2)cc1,IC50,[1],"19.2 µM [falling, partial curve]"
same,IC50,[2],"21.5 µM [falling, partial curve]"
same,IC50,[3],"21.5 µM [falling, partial curve, poor fit]"
same,IC50,[4],"3.83 µM [falling, full curve]"
C=Cc1cc2oc(-c3ccc(O)c(F)c3)nc2cc1O,IC50,[1],"27.1 µM [falling, partial curve]"
same,IC50,[2],"24.1 µM [falling, partial curve]"
same,IC50,[3],"27.1 µM [falling, partial curve]"
same,IC50,[4],"27.1 µM [falling, partial curve]"
CC[C@H](C)NC(=O)c1sc(=S)n2c1[nH]c(=O)c1cc(Cl)ccc12,IC50,[1],"24.1 µM [falling, partial curve]"
same,IC50,[2],"19.2 µM [falling, partial curve]"
same,IC50,[3],"21.5 µM [falling, partial curve]"
same,IC50,[4],"24.1 µM [falling, partial curve]"
COCc1nc2nc(-c3ccccc3)c(-c3ccc(O)c(F)c3)cc2n1C,IC50,[1],"39.3 µM [falling, single point]"
same,IC50,[2],"35 µM [falling, partial curve]"
same,IC50,[3],"31.2 µM [falling, partial curve]"
same,IC50,[4],"35 µM [falling, partial curve]"
O=C(Nc1cccc(Nc2cc(Nc3cccc(C(F)(F)F)c3)ncn2)c1)C1CC1,IC50,[1],"19.2 µM [falling, partial curve]"
same,IC50,[2],"19.2 µM [falling, partial curve]"
same,IC50,[3],"17.1 µM [falling, partial curve]"
same,IC50,[4],"19.2 µM [falling, partial curve]"
C/C(=N\N=C(N)N)c1cc(NC(=O)CCCCCCCCC(=O)Nc2cc(/C(C)=N/N=C(N)N)cc(/C(C)=N/N=C(N)N)c2)cc(/C(C)=N/N=C(N)N)c1,IC50,[1],"27.1 µM [falling, partial curve]"
same,IC50,[2],"15.2 µM [falling, partial curve]"
same,IC50,[3],"24.1 µM [falling, partial curve]"
same,IC50,[4],"21.5 µM [falling, partial curve]"
COc1ccc(-c2nc3ccccc3[nH]2)cc1,IC50,[1],"17.1 µM [falling, partial curve]"
same,IC50,[2],"15.2 µM [falling, partial curve]"
same,IC50,[3],"15.2 µM [falling, partial curve]"
same,IC50,[4],"13.6 µM [falling, partial curve]"
COc1ccc(OC)c(NC(=O)c2sc(=S)n3c2[nH]c(=O)c2ccc(Cl)cc23)c1,IC50,[1],"21.5 µM [falling, partial curve]"
same,IC50,[2],"21.5 µM [falling, partial curve]"
same,IC50,[3],"27.1 µM [falling, partial curve]"
same,IC50,[4],"24.1 µM [falling, partial curve]"

# Reference: PubChem BioAssay (NCATS)
